Measured values from the BET-seq Pho4 binding data (Le et al. 2018).
This is one part of the list. The energies were worked out here from pooled read counts, against the library average; single values are noisy.

Target: T1, Pho4 (S. cerevisiae) (UniProt P07270)
T1 sequence: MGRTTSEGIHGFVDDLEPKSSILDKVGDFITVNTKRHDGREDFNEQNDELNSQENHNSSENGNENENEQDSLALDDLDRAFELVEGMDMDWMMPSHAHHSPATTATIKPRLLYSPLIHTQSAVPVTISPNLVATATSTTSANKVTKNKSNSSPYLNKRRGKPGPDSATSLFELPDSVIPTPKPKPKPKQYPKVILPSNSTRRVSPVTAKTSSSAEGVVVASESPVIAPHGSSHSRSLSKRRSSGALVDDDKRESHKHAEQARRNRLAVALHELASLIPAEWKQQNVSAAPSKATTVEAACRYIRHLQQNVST
Experiment: relative binding free energy (BET-seq); higher = weaker binding
Settings: reference: library average

| Sequence | relative binding free energy [kcal/mol] |
| --- | --- |
| TGTTTCACGTGTGAGA | 0.32 |
| TCTGTCACGTGTAGGG | 0.15 |
| TAGGGCACGTGAGCGA | -0.07 |
| GTGTGCACGTGACTGG | 0.13 |
| TGAAGCACGTGGTTAT | -0.09 |
| TAGTGCACGTGCCGGG | -0.06 |
| TGGGTCACGTGAAAAT | 0.43 |
| TATATCACGTGATCGT | 0.25 |
| CGGCTCACGTGGGTCG | 0.14 |
| GTGGGCACGTGATAAA | 0.11 |
| AATAGCACGTGCAGGG | -0.07 |
| ACTTACACGTGAGGGG | 0.14 |
| ATTTTCACGTGCTAAT | 0.23 |
| AATCGCACGTGGTGGT | -0.31 |
| GTGGACACGTGTTGCG | -0.06 |
| TTGGACACGTGTCTTA | 0.03 |
| TAAGTCACGTGTTACA | 0.13 |
| GTGATCACGTGTACGG | 0.24 |
| GTTGGCACGTGGTCGA | -0.2 |
| GAGTTCACGTGATAGG | 0.36 |
| ACGGACACGTGGGGAT | -0.12 |
| TCAGTCACGTGGGAGT | -0.1 |
| CGGTTCACGTGACTGG | 0.34 |
| TGATACACGTGGCGGA | 0.12 |
| GGATGCACGTGGAGGG | -0.17 |

| Sequence | relative binding free energy [kcal/mol] |
| --- | --- |
| TATGTCACGTGGGGTC | 0 |
| GTATCCACGTGTGGGA | 0.12 |
| GTTCACACGTGTGTAT | 0.22 |
| TAAGGCACGTGGTTTT | -0.07 |
| GAGGCCACGTGGCGGT | -0.11 |
| GGGAACACGTGAGAGG | 0.32 |
| TGGATCACGTGAATTG | 0.3 |
| TTGAGCACGTGCCGTG | 0.03 |
| TCATGCACGTGGTTAT | -0.26 |
| TTCGACACGTGGTATG | -0.04 |
| TTTTTCACGTGTACGT | 0.36 |
| TCGGTCACGTGTAATT | 0.2 |
| GGGTGCACGTGGCTGT | -0.03 |
| ATATTCACGTGGATGA | 0.18 |
| GGGTTCACGTGTCACG | 0.23 |
| TGAAGCACGTGGGGCG | -0.27 |
| GGTGACACGTGGTCTC | 0 |
| TTTCTCACGTGGACGG | 0.31 |
| TATGTCACGTGCAAAG | 0.2 |
| AAGAACACGTGTGGTG | 0 |
| GTTCGCACGTGGTTTC | 0.01 |
| AGGATCACGTGGATTG | 0.26 |
| AACGTCACGTGGTGTG | 0.03 |
| CAAGGCACGTGAGAGT | 0.19 |
| GACAGCACGTGCGGGT | 0.05 |

| Sequence | relative binding free energy [kcal/mol] |
| --- | --- |
| GTTGTCACGTGATGTT | 0.38 |
| AATGGCACGTGGTACG | -0.2 |
| TTAGCCACGTGTGGAG | 0.02 |
| GCTCGCACGTGGTTGT | -0.04 |
| GGTATCACGTGTCTGG | 0.08 |
| ATATGCACGTGAAGTA | 0.14 |
| ATGTTCACGTGGGGGG | 0.14 |
| ACGTACACGTGGGGGT | -0.17 |
| ATTGGCACGTGCCGTT | -0.2 |
| AGTTTCACGTGGAAAG | 0.26 |
| CGTGTCACGTGGGTCT | -0.08 |
| AAGGGCACGTGTGAGC | 0.02 |
| TATTTCACGTGGAGCT | 0.09 |
| CATTTCACGTGTAGGT | 0.27 |
| TGGGACACGTGTGGAA | 0.22 |
| GTTAACACGTGGTGGA | -0.16 |
| AGATGCACGTGGGATG | -0.09 |
| GGCGTCACGTGGGTTC | 0.13 |
| TTTAGCACGTGAAAAG | 0.43 |
| CGGTGCACGTGCTTGG | -0.02 |
| TCAGTCACGTGGCAGG | -0.03 |
| TAGGGCACGTGGGCGA | -0.24 |
| TATGGCACGTGATTTA | 0 |
| TGGAGCACGTGGTCAA | -0.18 |
| TTGGGCACGTGCTTGG | -0.23 |

| Sequence | relative binding free energy [kcal/mol] |
| --- | --- |
| GAGTTCACGTGTGATT | 0.58 |
| ATCTACACGTGGTTTG | 0.05 |
| GTGGACACGTGCTGTG | -0.01 |
| ACATGCACGTGTGTTT | 0.01 |
| TGTCCCACGTGTGGGT | -0.07 |
| TGCTTCACGTGGAAGG | 0.2 |
| CATATCACGTGTTTAG | 0.13 |
| AGAGACACGTGGTTAG | 0.01 |
| GATTTCACGTGGGAGC | 0.48 |
| AGTTGCACGTGAATGG | 0.25 |
| CAGAGCACGTGTGGTG | -0.09 |
| TGTAACACGTGGAAGT | 0.07 |
| AAAGGCACGTGAGTAG | 0.07 |
| CTTTCCACGTGGGGGG | -0.2 |
| TAATGCACGTGATGTT | 0.05 |
| ATCTGCACGTGATTGA | 0.17 |
| ATGCTCACGTGTGGGT | 0.21 |
| GTAGTCACGTGCAGGA | 0.15 |
| GATCGCACGTGTAGTT | 0.07 |
| GAAGACACGTGTGGTT | 0.19 |
| AGATTCACGTGTGTAG | 0.27 |
| TGGGTCACGTGTTGTT | 0.16 |
| GGCGTCACGTGATTTG | 0.38 |
| GCGGTCACGTGGTTAT | -0.08 |
| TTTGGCACGTGCCTGG | -0.37 |

| Sequence | relative binding free energy [kcal/mol] |
| --- | --- |
| GGGGGCACGTGGAGAG | -0.06 |
| TGCCACACGTGTTTTG | 0.34 |
| TGGTACACGTGTATTG | 0.06 |
| TGTTCCACGTGTGAGC | 0.24 |
| TATGCCACGTGTTAGG | -0.15 |
| AATTGCACGTGCATGG | -0.12 |
| TGGATCACGTGGGGGA | 0.05 |
| GTATTCACGTGGCATA | 0.16 |
| ATATTCACGTGTTTCT | 0.21 |
| GGAAACACGTGAGCGG | 0.24 |
| GGTGTCACGTGCTGTG | 0.03 |
| TTTAACACGTGGATAT | 0.07 |
| ATGCGCACGTGTGAGT | -0.09 |
| GTGTGCACGTGTGACG | 0.13 |
| TGGTGCACGTGCTAAT | -0.03 |
| GGGGGCACGTGTACGG | -0.02 |
| TACGGCACGTGGAAGG | -0.06 |
| AAACGCACGTGTGGGG | -0.07 |
| ACTTTCACGTGATTGT | 0.28 |
| AGGTCCACGTGTGGAA | 0.12 |
| GGTGTCACGTGTTTAG | 0.17 |
| TCATGCACGTGAGTTG | 0.12 |
| AGGGACACGTGGTTGC | 0.03 |
| TATAACACGTGGATTG | 0.08 |
| AAGTTCACGTGTGTAG | 0.31 |

| Sequence | relative binding free energy [kcal/mol] |
| --- | --- |
| TGGTTCACGTGTCTGC | 0.25 |
| CGTGGCACGTGGGTTA | -0.15 |
| AGCAGCACGTGGGCGG | -0.27 |
| TAAATCACGTGTGTGA | 0.24 |
| CAATTCACGTGGGTGG | 0.17 |
| ATGGGCACGTGTATGC | -0.09 |
| TATTGCACGTGTGGCG | 0.05 |
| GTAAGCACGTGTGTTG | -0.03 |
| GTCGACACGTGGAGTT | 0.23 |
| AGAGGCACGTGTATGT | -0.1 |
| TTGCCCACGTGGGGTT | -0.28 |
| GGGGTCACGTGGAACT | 0.19 |
| TAGGGCACGTGAGATT | 0.22 |
| ACGGACACGTGGGGTA | -0.1 |
| AGTAGCACGTGGCTGT | -0.13 |
| CATAGCACGTGCGGGG | -0.21 |
| GGGCTCACGTGGGTTA | 0.05 |
| TGGTGCACGTGCATTA | -0.1 |
| TTCGACACGTGATGGG | 0.17 |
| GAGGTCACGTGGTGAC | 0.07 |
| GTGGGCACGTGAGAGG | 0.19 |
